Laboratory results as given in the supplement of paper PMC11417369.
This is one part of the list.

System: PF3D7_0420300 AP2 domain 1 (GST-tagged)
Experiment: gcPBM binding intensity (ln(normalized median fluorescence intensity)); higher = stronger DNA binding
How it was run: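 Each value is the highest Masliner-normalised natural-log median intensity across replicate spots of either orientation of a probe. The probes were primer-extended double-stranded 36-bp intergenic genomic sequences on an Agilent 4 × 180k array, alongside negative controls, exposed for 1 h to GST-tagged P. falciparum DNA-binding domains expressed in E. coli. Bound protein was picked up with Alexa488 anti-GST antibody and scanned at 488 nm.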

Sequence | gcPBM binding intensity (ln)
AATAACCACAGACACACACACATATAAATATAAATA [CACACA_site7631] | 10
ATATATATGTATACATGTACATATTTTATTATGTGC [XGTACX_site7207] | 9.21
GTGATTAATATATACACACATACATATATATATATA [CACACA_site2817] | 9.49
GCACACATATAATAATGTACATATATATATTTAAAA [XGTACX_site4561] | 9.33
TATTGATTATTTGAATGTACTTATTATATTAAATAT [XGTACX_site1304] | 9.1
AATAAAAATATTTTTACATGCAAATGTTATATATTT [TGCATGCA_site1056] | 9.21
ACACGCACATATATATAAATATATATATATATAAAT [CACACA_negctrl_site1781] | 9.21
ATTCTACACAGACATACACACATATATATATATATA [CACACA_site5826] | 9.62
AAAAAAAATTATTATGAACACACATTTATTATATTC [CACACA_site8443] | 9.28
TAATATGATCTTAATAGTACTTTATTAATAATAACC [XGTACX_site1953] | 9.07
TATATATGTTTATGTAGTACTATATATCCCTTTCTT [XGTACX_site7049] | 9.36
CACGCACAGATATATACACACTTTTATTTAAATAAC [CACACA_site6852] | 9.53
GGATGCACACAAAAGGGTACATAAGAAAAAAACAGG [XGTACX_site8570] | 9.59
AAAAATAAAATGGACACACACGTTCAAATTTAGATT [CACACA_site5186] | 9.74
TGGGTAAACAAACACACACACATATATATATATATA [CACACA_site1992] | 9.78
TTCACTAATAAATACGCACACATATACAGATATATA [CACACA_site4887] | 9.39
AAATATATATATAGTTGTACATATATCGTATATATT [XGTACX_site7867] | 9.31
AGTTGTTACGAACATACACACGAACATAGACACGGA [CACACA_site8102] | 9.76
AAAAAAAAATATATAAACACACATATTTATATACAC [GTGCAC_negctrl_site545] | 9.61
TTATTTAAATAATATGTACACACATTTAAAAAATTA [CACACA_site8912] | 9.1
ATGAGTGTAATAATATGTACATAACCTACATAATTT [XGTACX_site852] | 9.31
ATAAAAATATTACGCACACACAAACTTATTCATTAT [CACACA_site1969] | 9.87

Sequence | gcPBM binding intensity (ln)
TTGTTCAAACAAAAAATAAAATAATTGAAAATAAAA [CACACA_negctrl_site812] | 9.01
GTAACTTTATTATACTGTACTATTATATAAGCACAC [XGTACX_site2859] | 9.34
TGTAAAAAATTTAACACACACATATATATATATATA [CACACA_site2585] | 9.46
ATTACAATATATACGTGTACATATTACCACCGCTAC [XGTACX_site2308] | 9.41
AAAAAAAAAAGACACACACACAAAAAAAGATATATA [CACACA_site6645] | 10.2
TAGAATAAGATAGATATACACACCATTATAAATATA [CACACA_site2500] | 9.6
TTACAAAATAAGAGGCACAAACACAAAAAAAAATAA [CACACA_negctrl_site574] | 9.62
AAAAAAAAAAGACATGCATACGCTAATTTTTAGTTG [TGCATGCA_site300] | 9.03
TATTATAATAAGAAGTGTACGTGTTTTTATAAATAA [XGTACX_site575] | 9.04
TATAAAAAAAACGAAAAAAAAAAAAAAAATACAGGA [TGCATGCA_negctrl_site585] | 9.72
TTATTTATAAACATATGTACTAATACATGATTAACA [XGTACX_site7645] | 9.02
GACATATATATAAAATGTACATATATATTTACATAT [XGTACX_site7822] | 9.29
TGATAATAAGCATACACACACACACTAGAAAAAAAA [CACACA_site4558] | 10.1
TGTTCTTTATTTTATTGTACTTTTAAAATTCCTTTA [XGTACX_site8058] | 9.35
AATATTAAACAAAATAAATATATAAAAAATAAATAA [GTGCAC_negctrl_site93] | 9.33
AAGTTATATTTGTGTACACATAATTTTATACTAATA [CACACA_site5553] | 9.39
TATTTAATACGGACTCATAAATCTTAATAAAAAAAA [CACACA_negctrl_site434] | 8.9
ATTATGTTTCTTTTTTTTTTTAAAGGATGTCTTTTT [CACACA_negctrl_site974] | 9.38
TTTAAGCAAAAACACACACACATATATATATATATA [CACACA_site349] | 9.77
AAAAAATGATAATATACACACTTATGGGAGAGCGCA [CACACA_site5398] | 9.64
TATAAATATATATACACACACATATATATTATATAT [CACACA_site596] | 9.73
AAAAAAGAAAAAAACTGTACATGATAAATATTTATT [XGTACX_site7270] | 9.44
